Hit rate of the full screen: of about 3,200 compounds, about 300 (9.4%) showed activity. The list shows a part of the results, in another mix than the full data.
Test system: A673/TR/shEF
Experiment: cell viability (LOESS-normalised, relative to median of negative controls) (log2 ratio); higher = more viable cells (less compound effect), active = hit call of the paper (over 3 MAD below the median)
Details: treatment time: 72 h
Method in brief: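 For three days, A673/TR/shEF Ewing sarcoma cells in 384-well plates (1,500 per well) were treated with library compounds at two or more concentrations or with DMSO controls, after doxycycline had been added or withheld 24 h beforehand to induce EWS-FLI1 shRNA knockdown. Viability was read by CellTiter-Glo luminescence on an Envision reader. The data were LOESS-corrected per plate, divided by the median of negative controls and log2-transformed.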

[1] = 0.103 µM, library screen: screen3, EWS-FLI1 expression: high (no doxycycline)
[2] = 0.103 µM, library screen: screen3, EWS-FLI1 expression: low (doxycycline-induced shRNA knockdown)
[3] = 0.308 µM, library screen: screen3, EWS-FLI1 expression: high (no doxycycline)
[4] = 0.308 µM, library screen: screen3, EWS-FLI1 expression: low (doxycycline-induced shRNA knockdown)
[5] = 0.926 µM, library screen: screen3, EWS-FLI1 expression: high (no doxycycline)
[6] = 0.926 µM, library screen: screen3, EWS-FLI1 expression: low (doxycycline-induced shRNA knockdown)
[7] = 2.8 µM, library screen: screen3, EWS-FLI1 expression: high (no doxycycline)
[8] = 2.8 µM, library screen: screen3, EWS-FLI1 expression: low (doxycycline-induced shRNA knockdown)
[9] = 8.3 µM, library screen: screen3, EWS-FLI1 expression: high (no doxycycline)
[10] = 8.3 µM, library screen: screen3, EWS-FLI1 expression: low (doxycycline-induced shRNA knockdown)
[11] = 25 µM, library screen: screen3, EWS-FLI1 expression: high (no doxycycline)
[12] = 25 µM, library screen: screen3, EWS-FLI1 expression: low (doxycycline-induced shRNA knockdown)
[13] = 0.25 µM, library screen: screen1, EWS-FLI1 expression: high (no doxycycline)
[14] = 0.25 µM, library screen: screen1, EWS-FLI1 expression: low (doxycycline-induced shRNA knockdown)
[15] = 2.5 µM, library screen: screen1, EWS-FLI1 expression: high (no doxycycline)
[16] = 2.5 µM, library screen: screen1, EWS-FLI1 expression: low (doxycycline-induced shRNA knockdown)
[17] = 0.25 µM, library screen: screen2, EWS-FLI1 expression: high (no doxycycline)
[18] = 0.25 µM, library screen: screen2, EWS-FLI1 expression: low (doxycycline-induced shRNA knockdown)
[19] = 2.5 µM, library screen: screen2, EWS-FLI1 expression: high (no doxycycline)
[20] = 2.5 µM, library screen: screen2, EWS-FLI1 expression: low (doxycycline-induced shRNA knockdown)

Measured: cell viability (log2)

CNS(=O)(=O)Cc1ccc2[nH]cc(CCN(C)C)c2c1
inactive: [1] 0.0269 | [2] 0.00863 | [3] -0.0124 | [4] 0.0116 | [5] 0.0054 | [6] 0.0629 | [7] -0.00592 | [8] 0.0368 | [9] -0.0199 | [10] 0.0603 | [11] 0.00415 | [12] 0.0258

O=c1c(O)c(-c2ccc(O)c(O)c2)oc2cc(O)ccc12
inactive: [13] 0.102 | [14] 0.131 | [15] 0.118 | [16] 0.171

Cc1cc(C2CCCCC2)n(O)c(=O)c1
inactive: [13] 0.0729 | [14] 0.0678 | [15] 0.149 | [16] 0.158

C=C1CC/C=C(/C)CC[C@@H]2[C@@H]1CC2(C)C
inactive: [13] 0.102 | [14] 0.0257 | [15] 0.165 | [16] 0.118

O=C(O)C(=O)O.[NH-]C1CCCCC1[NH-].[Pt+2] (stereo unspecified)
inactive: [1] 0.0625 | [2] 0.0242 | [17] 0.0166 | [18] 0.126 | [3] 0.1 | [4] 0.0417 | [5] -0.00214 | [6] 0.0798 | [19] 0.0703 | [20] 0.0751 | [7] 0.0326 | [8] 0.0373 | [9] 0.000238 | [10] 0.0484 | [11] -0.117 | [12] -0.0858

O=C(O)c1cc2cc(Cl)ccc2[nH]1
inactive: [13] 0.0631 | [14] -0.00653 | [15] 0.106 | [16] 0.0362

Cc1ccc(OCC(=O)N2CCC(C)CC2)c(C)c1
inactive: [13] 0.0605 | [14] 0.118 | [15] 0.14 | [16] 0.114

O=C(O)c1cc(=O)c2ccccc2o1
inactive: [13] 0.117 | [14] 0.0802 | [15] 0.113 | [16] 0.0411

CC(=O)CC(=O)CCC(=O)O
inactive: [13] 0.167 | [14] 0.123 | [15] 0.14 | [16] 0.11

NS(=O)(=O)c1cc(C(=O)O)c(NCc2ccco2)cc1Cl
inactive: [1] 0.0932 | [2] -0.0415 | [13] 0.1 | [14] -0.0303 | [17] 0.155 | [18] 0.0924 | [3] 0.113 | [4] 0.0841 | [5] 0.0979 | [6] 0.067 | [15] 0.175 | [16] 0.111 | [19] 0.094 | [20] -0.00291 | [7] 0.0122 | [8] 0.0789 | [9] 0.0686 | [10] 0.0576 | [11] 0.0715 | [12] 0.0929

CCC[C@@H]1C[C@@H](C(=O)NC(C(C)Cl)[C@H]2O[C@H](SC)[C@H](O)[C@@H](O)[C@H]2O)N(C)C1 (stereo partly specified)
inactive: [1] 0.116 | [2] 0.116 | [13] 0.122 | [14] 0.0603 | [3] 0.0555 | [4] 0.0178 | [5] 0.122 | [6] 0.0533 | [15] 0.162 | [16] 0.16 | [7] 0.103 | [8] -0.00415 | [9] 0.0069 | [10] 0.0468 | [11] 0.000584 | [12] 0.111

COc1ccc2ccc(=O)oc2c1
inactive: [13] 0.112 | [14] 0.0698 | [15] 0.19 | [16] -0.0312

OCC(O)C1NCC(O)C1O (stereo unspecified)
inactive: [17] 0.0417 | [18] 0.103 | [19] 0.000766 | [20] 0.0189

CC(=O)Oc1cc(C)c2c(c1C(OC(C)=O)OC(C)=O)Oc1c(c(C)c(OC(C)=O)c3c1C(OC(C)=O)OC3=O)OC2=O (stereo unspecified)
inactive: [13] 0.0407 | [14] 0.0968 | [15] 0.0425 | [16] 0.133

COc1cc([S+](C)[O-])ccc1-c1nc2ncccc2[nH]1 (stereo unspecified)
inactive: [13] 0.101 | [14] 0.00949 | [15] 0.131 | [16] 0.0599

O=[N+]([O-])c1cccc2c(Br)[nH]nc12
inactive: [17] 0.237 | [18] 0.103 | [19] 0.209 | [20] 0.0734

CC(C)(O)[C@H]1CC[C@]2(C)[C@H]3CC[C@@H]4[C@@]5(C)CCCC(C)(C)[C@@H]5[C@@H](O)C[C@@]4(C)[C@]3(C)CC[C@@H]12
inactive: [13] 0.0136 | [14] 0.0775 | [15] 0.0306 | [16] 0.112

O=C1NCN(c2ccccc2)C12CCN(CCCC(c1ccc(F)cc1)c1ccc(F)cc1)CC2
inactive: [17] 0.134 | [18] 0.0215 | [19] 0.036 | [20] 0.0813

COc1cccc(OC)c1OCCNCC1COc2ccccc2O1 (stereo unspecified)
inactive: [17] 0.205 | [18] 0.0306 | [19] 0.221 | [20] 0.0591

CC(CN1c2ccccc2Sc2cccnc21)N(C)C (stereo unspecified)
inactive: [13] 0.132 | [14] 0.0453 | [15] 0.0549 | [16] 0.034

CC(=O)CCC(=O)O
inactive: [13] 0.109 | [14] -0.0377 | [15] 0.149 | [16] 0.116

CC[C@H]1OC(=O)[C@H](C)[C@@H](O[C@H]2C[C@@](C)(OC)[C@@H](O)[C@H](C)O2)[C@H](C)[C@@H](O[C@@H]2O[C@H](C)C[C@H](N(C)C)[C@H]2O)[C@](C)(OC)C[C@@H](C)C(=O)[C@H](C)[C@@H](O)[C@]1(C)O
inactive: [1] 0.0902 | [2] 0.108 | [13] 0.0996 | [14] 0.0329 | [3] 0.116 | [4] 0.0395 | [5] 0.0584 | [6] 0.101 | [15] 0.141 | [16] -0.0156 | [7] 0.0826 | [8] 0.0746 | [9] 0.0519 | [10] 0.1 | [11] 0.0701 | [12] 0.063

C[C@H]1COC2=C1C(=O)C(=O)c1c2ccc2c1CCCC2(C)C
inactive: [1] 0.0338 | [2] 0.0754 | [3] 0.0526 | [4] 0.0683 | [5] 0.0196 | [6] 0.0264 | [7] -0.0315 | [8] -0.0274 | [9] 0.0932 | [10] -0.035
active: [11] -0.196 | [12] -0.308

NC(=O)Cc1cccc(C(=O)c2ccccc2)c1N
inactive: [1] 0.11 | [2] 0.0297 | [3] 0.0847 | [4] 0.0563 | [5] 0.0483 | [6] 0.064 | [7] 0.0322 | [8] 0.0631 | [9] 0.0846 | [10] 0.0598 | [11] -0.0622 | [12] -0.0429

CC(=O)SCC[N+](C)(C)C
inactive: [17] -0.0322 | [18] 0.039 | [19] -0.0265 | [20] 0.0874

CCCCOC(=O)c1ccc(N)cc1
inactive: [13] 0.101 | [14] 0.027 | [15] 0.144 | [16] 0.0774

CC(C)C[C@H](NC(=O)[C@H]1O[C@@H]1C(=O)O)C(=O)NCCCCN=C(N)N
inactive: [17] 0.159 | [18] 0.0497 | [19] 0.101 | [20] 0.0758

CCCCCCc1ccc(O)cc1O
inactive: [13] 0.131 | [14] 0.0469 | [15] 0.139 | [16] 0.145

CC1(C)NC(=O)N(c2ccc([N+](=O)[O-])c(C(F)(F)F)c2)C1=O
inactive: [13] 0.0999 | [14] 0.0399 | [17] 0.127 | [18] 0.0979 | [15] 0.113 | [16] 0.0337 | [19] 0.112 | [20] 0.0983

C=C1CC[C@@H]2[C@H](CC2(C)C)C(=O)CC[C@@H]1O
inactive: [13] 0.0475 | [14] 0.00133 | [15] 0.0814 | [16] 0.0623

COC(=O)[C@@H]1[C@H]2C[C@H]3c4[nH]c5ccccc5c4CCN3C[C@@H]2CC[C@@H]1O
inactive: [13] 0.0728 | [14] 0.0586 | [17] 0.128 | [18] 0.0502 | [15] 0.139 | [16] 0.126 | [19] 0.196 | [20] 0.126

CCC(C)n1ncn(-c2ccc(N3CCN(c4ccc(OC[C@H]5CO[C@](Cn6cncn6)(c6ccc(Cl)cc6Cl)O5)cc4)CC3)cc2)c1=O (stereo partly specified)
inactive: [1] -0.00587 | [2] -0.0322 | [3] 0.0158 | [4] 0.0366 | [5] 0.0942 | [6] 0.0808 | [7] 0.0248 | [8] 0.0437 | [9] -0.13 | [10] 0.0912 | [11] 0.0658 | [12] 0.11

COC(=O)C[C@H]1C(C)(C)C(=O)[C@@H]2CC3=C4CC(=O)O[C@@H](c5ccoc5)[C@]4(C)CC[C@@H]3[C@@]1(C)C2=O
inactive: [13] 0.0642 | [14] 0.0645 | [15] 0.101 | [16] 0.103

COc1ccc(C(=O)CC(=O)O)c2c1C=CC(C)(C)O2
inactive: [13] -0.00754 | [14] -0.0232 | [15] 0.0962 | [16] 0.0419

CC(=O)O.CC(=O)O.[Cd]
inactive: [13] 0.129 | [14] -0.0033 | [15] 0.0042 | [16] -0.0745

C[C@@H](NC(=O)/C(C#N)=C/c1ccc(O)c(O)c1)c1ccccc1
inactive: [17] 0.139 | [18] -0.0177 | [19] 0.152 | [20] 0.00798
